# Assay results published in the supplement of paper PMC11417369.
# ± gives the standard deviation of the averaged measurements. The list shows a part of the results.
# Tested on: PfAP2-LT AP2 domain (GST-tagged)
# Test: gcPBM binding intensity (ln(normalized median fluorescence intensity)); higher = stronger DNA binding
# Method in brief: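 An Agilent 4 × 180k array carrying primer-extended double-stranded 36-bp intergenic genomic probes and negative controls received GST-tagged P. falciparum DNA-binding domains expressed in E. coli, about 25 μg on average, for 1 h. The binding buffer contained 1× PBS, 1% milk, 0.2 mg/ml BSA, 0.5% salmon testes DNA and 0.03% Triton X-100. Binding intensity is the top Masliner-normalised natural-log median intensity across replicate spots of either probe orientation, read after Alexa488 anti-GST antibody staining and a 488 nm scan.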
row,Sequence,gcPBM binding intensity (ln)
1,ATAAAAATATTTATTACACACATAAGCAAAAAAAAA [CACACA_site3484],8.86 ± 0.43
2,TATAATGATGATGATAGTACGTATGAGTAAGAAAAA [XGTACX_site31],8.99 ± 0.54
3,TATTTTTATTTTTAAACCATATATATATATATATAT [CACACA_negctrl_site1560],9.44 ± 0.16
4,TATAGTTTCATTCTTTGTACATATATATTATTATTA [XGTACX_site8527],8.83 ± 0.44
5,TTTGTATTACGTTTGTGTACATATACAATGTGTTTT [XGTACX_site7708],9.04 ± 0.48
6,CATACATATATACATACACACACATATAACCAATGT [CACACA_site8679],9.64 ± 0.3
7,TTTATTTATTTATGGACACACATACAAATCTTCCAG [CACACA_site4676],8.76 ± 0.47
8,TCCATGCATTGACACACACACAAAAAAAAATTCTTT [CACACA_site7847],9.21 ± 0.45
9,AATAATAATGCTTTAACTTTGTTGTTATTTAGAATA [CACACA_negctrl_site1144],8.45 ± 0.45
10,TATAAATAAAAGTGTACACACATTAAAATCAAACGT [CACACA_site5316],9.44 ± 0.43
11,ATATGTACAAAATAAGCACACACAAAAAAAAAAAAA [CACACA_site8984],9.48 ± 0.45
12,AAAAAAAAAAAAAATATATATATATATATATATATA [CACACA_negctrl_site540],10.1 ± 0.25
13,TTTTTTTTTTTTTTTTGTACATAAATTTTTATTAGA [XGTACX_site6409],8.3 ± 0.35
14,GCTTAATACAGAATAACACACAAAATAAATAAATAA [CACACA_site4041],9.08 ± 0.47
15,TTTTTTTTTTTTTTTGCACACTTAAATTTGGTGGCT [CACACA_site5319],8.89 ± 0.53
16,TATATTTGTGCGTGTACACATTTGAAAAAATATATA [CACACA_site5079],8.72 ± 0.44
17,TTGGCTATAGCCAATTGTACTTTTTCTCTTTGGCTT [XGTACX_site1119],8.65 ± 0.54
18,GACATATATACCAAACGTACATATGTGCAAGCATAA [XGTACX_site3089],9.07 ± 0.4
19,TCTTGATTAACTTAAAAAAAAAAAAAAAAAAAAAAA [CACACA_negctrl_site458],8.02 ± 0.35

row,Sequence,gcPBM binding intensity (ln)
1,CATATAATAAATAATTGTACTTGATATAATATTATG [XGTACX_site3562],8.62 ± 0.45
2,ATAAATTATAATAACTGTACAAAAATAATATATTCA [XGTACX_site1856],8.73 ± 0.39
3,TATATAATTATTTTTTGTACTCATAATAATATGAAA [XGTACX_site289],8.35 ± 0.44
4,AATAATAATAAAAAGGTGCTGAAATATTTTTATTAT [GTGCAC_site9763],8.66 ± 0.46
5,ATTATTAAGGTTTATTCAAAAAAGACGTTTTTAAAT [CACACA_negctrl_site1059],8.31 ± 0.46
6,AGACACGTATACGATGCACACGTATGCTTTATATAT [CACACA_site9363],9.22 ± 0.26
7,TATGAGAAAAAAAGTACATGCACAAAATGTATATGT [TGCATGCA_site789],8.89 ± 0.44
8,ATTATATAAACCAAATGTACAAAAAGGTCGTAGTGG [XGTACX_site1298],9.13 ± 0.47
9,CAACATTGTTCCTATTGTACATGAACTGTTCATACG [XGTACX_site4070],8.89 ± 0.4
10,TTTATTTATTATTATGTACACACTATATTAAAACAT [CACACA_site700],8.82 ± 0.45
11,AAATATATTTCTTTTTTTCTTATTATTAATTTGCTT [CACACA_negctrl_site1483],8.56 ± 0.57
12,TATAGATTTATATACACATGCATTTTGGTAAAGAAA [TGCATGCA_site953],8.67 ± 0.45
13,TATTTTTTTAATAACTGTACTTTTTTGTCAAATGGA [XGTACX_site4179],8.32 ± 0.49
14,ATTGTAAGTAGACACACACACATATAGATGTATATA [CACACA_site6463],9.48 ± 0.28
15,TTAGGATTGAAGAGTTGTACATACCTCTTATTTGTT [XGTACX_site1376],8.79 ± 0.54
16,TATAAAATGTAATCTGAACACACATATTTTTTTAAT [CACACA_site8521],8.71 ± 0.42
17,ATCATATATTATTTATGTACTTATTTATAATAATAT [XGTACX_site8257],8.76 ± 0.39
18,TTAAAATTATAATACGTACACACCTTATCTTTTTGG [CACACA_site278],8.96 ± 0.49
19,TGTTGTTTTATGTTGTATTGTAATATATTATATTAT [XGTACX_negctrl_site46],8.97 ± 0.35

row,Sequence,gcPBM binding intensity (ln)
1,GGCGTATGTGTATATACACACCCACGTATATATATA [CACACA_site9046],9.34 ± 0.41
2,ATATATAACGGGCACACACACATTTACGTATGAATA [CACACA_site1833],9.61 ± 0.39
3,ATATATGGAGCTTATACACACTTTTATATTTTAACA [CACACA_site7757],8.81 ± 0.38
4,TTGGGCATAATGTCATGTACACAAATAATTCTTTAT [XGTACX_site861],8.81 ± 0.62
5,AAACGTGTGTATAATAGTACATAATTATAACGTAAT [XGTACX_site421],9.43 ± 0.38
6,CGTATTTTTGGACATGCATGTACAAATAATCTTATG [TGCATGCA_site973],8.76 ± 0.4
7,AAATTTGGCAAACACACACACACACCCACAGAGACA [CACACA_site4490],10.2 ± 0.13
8,AATGTTTTTGTGAGATGTATAAATTTTATTTTATTT [XGTACX_negctrl_site413],8.61 ± 0.47
9,AAAAAAATAATGTACACACACATATAGGTTTATATA [CACACA_site192],9.18 ± 0.46
10,TAAGTTTTGTTCTTTTGTACATATAAGTATAGATCG [XGTACX_site4735],8.6 ± 0.46
11,GTAGTGGTTGAATATACACACATATATAAATAAATA [CACACA_site7282],9.12 ± 0.4
12,GTTTTCATCCAAAAAAGTACATTTATTTTTATACGA [XGTACX_site1039],8.49 ± 0.5
13,ATGTATGAATTACATAGTACATAAGAAAAAATGAAG [XGTACX_site5942],9.05 ± 0.42
14,GGAAAATCTTTATAATGTACATTATGATTATATAAT [XGTACX_site6256],8.77 ± 0.35
15,AAATATAAAGTGCACACACACAAAAAAAGAAAAAAA [CACACA_site6452],9.33 ± 0.31
16,TTAACTTAAGGAGAGTGTACAAATAATAAAATATCT [XGTACX_site4118],8.82 ± 0.45
17,ATTATTACATTTTTATGTACATATCAAATTTATACA [XGTACX_site7332],8.73 ± 0.47
18,TTAAAATATGAATAATGTACAAGAAATTTTATTAAT [XGTACX_site6314],8.52 ± 0.45
